# PubChem BioAssay AID1347165 (National Center for Advancing Translational Sciences (NCATS), 2019)
# Hit rate of the full screen: of about 220,000 compounds, about 5,700 (2.6%) were called active. This list was built around the results that the source calls inconclusive (neither active nor inactive); the mix of calls is not that of the screen. The call rests on the fitted dose curve; in most records, active means well fitted inhibition curve with a large enough effect; inconclusive means small, poorly fitted or top-dose-only effect; inactive means no such curve, though single readings can be large or run the other way. Potencies of inconclusive entries are doubtful fits and often do not repeat.
# Target: Lysine-specific demethylase 5B (Homo sapiens) (UniProt Q9UGL1)
# Sequence of UniProt Q9UGL1 (Q9UGL1 whole entry, looked up): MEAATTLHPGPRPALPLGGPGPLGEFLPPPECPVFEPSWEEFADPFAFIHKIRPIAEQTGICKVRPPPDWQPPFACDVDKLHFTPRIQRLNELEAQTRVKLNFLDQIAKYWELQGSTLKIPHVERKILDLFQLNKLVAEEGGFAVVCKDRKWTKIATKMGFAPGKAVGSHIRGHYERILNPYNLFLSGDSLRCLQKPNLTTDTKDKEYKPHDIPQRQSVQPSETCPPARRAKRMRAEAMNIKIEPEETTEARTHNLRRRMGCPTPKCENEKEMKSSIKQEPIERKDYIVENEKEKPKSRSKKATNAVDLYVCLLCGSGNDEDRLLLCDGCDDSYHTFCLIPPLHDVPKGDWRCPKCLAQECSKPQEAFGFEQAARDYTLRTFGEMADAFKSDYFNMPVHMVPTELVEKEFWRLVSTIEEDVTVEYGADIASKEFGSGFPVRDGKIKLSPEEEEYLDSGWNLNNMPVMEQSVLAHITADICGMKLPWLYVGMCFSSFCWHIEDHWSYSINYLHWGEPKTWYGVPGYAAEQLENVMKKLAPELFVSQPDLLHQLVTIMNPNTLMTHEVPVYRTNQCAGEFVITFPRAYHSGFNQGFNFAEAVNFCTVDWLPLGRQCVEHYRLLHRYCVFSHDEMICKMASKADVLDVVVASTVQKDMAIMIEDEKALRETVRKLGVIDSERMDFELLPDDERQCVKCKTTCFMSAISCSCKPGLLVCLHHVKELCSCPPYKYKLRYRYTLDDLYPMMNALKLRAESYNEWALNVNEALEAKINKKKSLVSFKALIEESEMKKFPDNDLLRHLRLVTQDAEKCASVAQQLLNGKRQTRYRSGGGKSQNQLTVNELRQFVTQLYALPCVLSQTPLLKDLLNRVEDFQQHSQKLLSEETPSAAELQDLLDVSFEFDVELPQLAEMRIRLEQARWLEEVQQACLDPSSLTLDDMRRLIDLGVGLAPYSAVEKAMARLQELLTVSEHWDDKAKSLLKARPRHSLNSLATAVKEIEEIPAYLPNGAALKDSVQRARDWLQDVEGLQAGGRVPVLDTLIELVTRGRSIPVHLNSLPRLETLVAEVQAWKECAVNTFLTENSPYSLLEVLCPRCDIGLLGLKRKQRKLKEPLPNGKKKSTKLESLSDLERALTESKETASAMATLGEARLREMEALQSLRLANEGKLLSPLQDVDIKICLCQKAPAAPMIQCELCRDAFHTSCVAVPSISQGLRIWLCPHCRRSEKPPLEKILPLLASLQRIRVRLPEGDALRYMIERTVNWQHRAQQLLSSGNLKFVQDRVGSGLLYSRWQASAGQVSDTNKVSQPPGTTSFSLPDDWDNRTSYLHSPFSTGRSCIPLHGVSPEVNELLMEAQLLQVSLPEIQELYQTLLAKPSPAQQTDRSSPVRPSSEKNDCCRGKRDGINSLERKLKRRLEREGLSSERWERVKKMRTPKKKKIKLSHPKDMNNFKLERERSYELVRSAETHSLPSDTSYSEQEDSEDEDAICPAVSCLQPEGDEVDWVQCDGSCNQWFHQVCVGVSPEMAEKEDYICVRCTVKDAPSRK
# Assay: Primary screen for KDM5B Histone Demethylases FDH-coupled qHTS; further: nearly all actives have a fitted effect of over 70% in size; on activity change, negative = inhibition: 0% is about no effect
# Conditions: FDH-coupled NADH fluorescence (FDH is formaldehyde dehydrogenase); activity change, negative = inhibition: at 57.7 µM (top of the series)
# In short: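 Inhibition is measured as reduced NADH fluorescence generation from FDH coupling to formaldehyde release. Truncated KDM5BΔAP at 200 nM final acts on H3K4me3 peptide (12.5 µM in substrate mix) in pH 7.5 HEPES buffer with Tween-20, 30 min, room temperature.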
# Potency means the concentration at half of the fitted maximal effect; tags describe the fitted curve by direction and shape.
Structure (SMILES),Potency,"activity change, negative = inhibition"
COc1cc2c(cc1OCc1ccccc1)NC(=O)C21CCN(c2ccccn2)CC1,active: 25.1 µM,
COc1cccc(Nc2cc3c(cn2)CN(C)CCN3)c1,"inconclusive: 31.6 µM [inhibitor, partial curve, poor fit]",
CC(=O)N1N=C(c2c(O)n(C)c(=O)n(C)c2=O)CC1c1ccccc1 (stereo not given),"inconclusive: 14.1 µM [inhibitor, partial curve, poor fit]",
O=C1CC(c2ccc(F)cc2)c2c(c3ccccc3oc2=O)O1 (stereo not given),"inconclusive: 20 µM [inhibitor, partial curve, poor fit]",
Cc1cccc(-n2c(/C=C/c3ccco3)nc3ccccc3c2=O)c1,"inconclusive: 25.1 µM [inhibitor, partial curve, poor fit]",
Cc1nc(-c2ccccc2)cc([C@H]2CN3CC[C@H]2C[C@@H]3CNS(=O)(=O)Cc2ccccc2)n1,,inactive: 17.1%
c1ccc(CN2CCCC3(CC(c4ccccn4)=NO3)C2)nc1 (stereo not given),,inactive: -12% [at 149 µM]
C=C[C@H]1CN2CC[C@H]1C[C@@H]2CNC(=O)C1CC1,,inactive: -2.78% [at 115 µM]
Cn1cc(CN[C@@H]2C[C@H](CO)[C@@H](O)[C@H]2O)c2ccccc21,"inconclusive: 22.4 µM [inhibitor, partial curve, poor fit]",
O=C(c1ccsc1)N1CC(CO)C2(CCNCC2)C1 (stereo not given),,inactive: -20.1%
COCC1(CNC2CCN(C)CC2)C[C@@H](O)[C@@H](O)C1 (stereo not given in full),,inactive: -3.83% [at 115 µM]
N#Cc1cccc(NC(=O)c2sc3nc4c(cc3c2N)N2CCC4CC2)c1,"inconclusive: 14.1 µM [inhibitor, partial curve, poor fit]",
CN1CCN(C(=O)Cc2cccn2-c2ccc(F)cc2)CC1,,inactive: -14.2%
CSc1ccc(-c2ccc(=O)n3c2[C@@H]2C[C@@H](CN(C(=O)Nc4cccc(F)c4)C2)C3)cc1,"inconclusive: 25.1 µM [inhibitor, single point]",
COc1cc2c(cc1Oc1cccc(N(C)C)c1)NC(=O)C21CCN(c2ncccn2)CC1,"inconclusive: 25.1 µM [inhibitor, single point]",
COc1ccc(NC(=O)CCc2nc(C3=CCN(Cc4cccc(Cl)c4)CC3)no2)cc1OC,"inconclusive: 3.16 µM [inhibitor, partial curve, poor fit]",
Cc1ccc(Cn2cccc(C(=O)Nc3nnc(C)s3)c2=O)cc1,,inconclusive: -34.8% [inhibitor]
O=C(Cc1c(F)cccc1Cl)N1[C@H]2CC[C@@H]1c1cnc(-c3ccccc3)nc1C2,,inactive: -4.21%
CN1CCN(C(=O)Cc2c[nH]c3ncc(-c4cccc(Cl)c4)cc23)CC1,active: 35.5 µM,
CCCN1CC2(CCN(C)CC2)CC1C(=O)N(C)Cc1ccon1 (stereo not given),"inconclusive: 39.8 µM [inhibitor, single point]",
O=C(O)C1=NOC2CN(CC3CCCC3)CC12 (stereo not given),"inconclusive: 28.2 µM [inhibitor, full curve, poor fit]",
COc1ccc(CCNCc2ccccc2C)cc1,,inactive: 14.8%
CCCCc1cn(C[C@H]2C[C@@H]3CCN2C[C@@H]3C(=O)Nc2nccs2)nn1,,inactive: 2% [at 86.2 µM]

Structure (SMILES),Potency,"activity change, negative = inhibition"
CCOC(=O)C1=C(C)OC(N)=C(C(=O)OC)C12C(=O)Nc1cc(Br)ccc12 (stereo not given),,inactive: -13.2%
COc1ccc(N2C(=O)/C(=C/c3cccs3)C(=O)NC2=S)cc1,"inconclusive: 8.91 µM [inhibitor, full curve, poor fit]",
c1ccc(CNC2(c3nnnn3-c3ccccc3)CCCCC2)cc1,,inactive: -16.4%
O=C1NC(=O)N(c2ccccc2)C(=O)/C1=C\c1ccccc1[N+](=O)[O-],"inconclusive: 22.4 µM [inhibitor, partial curve, poor fit]",
Cc1ccc(C(C)C)cc1OCC(=O)N1CCN(Cc2nc(N)c3ccccc3n2)CC1,,inactive: 1.18%
Cc1nc(-c2ccccc2Br)cc([C@H]2CN3CC[C@H]2C[C@@H]3CNC(=O)CSCC(=O)O)n1,active: 25.1 µM,
CCOC(=O)c1c(C)n(Cc2ccccc2)c2ccc(OC)cc12,"inconclusive: 28.2 µM [inhibitor, single point]",
COc1cc2c(cc1OCC1CC1)NC(=O)C21CCN(c2ncc(C(C)C)cn2)CC1,"inconclusive: 31.6 µM [inhibitor, single point]",
CCN1CCCCC12Cc1ccccc1CN(C(=O)Cc1ccccc1)C2 (stereo not given),,inactive: 17.1% [at 115 µM]
O=c1ccc(-c2cccs2)c2n1C[C@H]1C[C@@H]2CN(S(=O)(=O)c2cccs2)C1,active: 31.6 µM,
Cc1c(-c2ccc(Br)cc2)c(=O)oc2ccc(OC(=O)N(C)C)cc12,"inconclusive: 25.1 µM [inhibitor, single point]",
O=C1NC(=O)N(c2ccccc2)C(=O)/C1=C\C=C\c1ccccc1,"inconclusive: 25.1 µM [inhibitor, partial curve, poor fit]",
Cc1noc(C)c1COc1ccc(CC(=O)N2CCN(CC(=O)N3CCCC3)CC2)cc1,,inactive: -7.03%
COc1ccc(OC)c(S(=O)(=O)N2[C@H]3CC[C@@H]2c2cnc(-c4ccccc4)nc2C3)c1,,inactive: -10.3%
CC(C)(O)c1cn(C[C@H]2C[C@@H]3CCN2C[C@@H]3C(=O)N2CCOCC2)nn1,,inactive: 11.4% [at 86.2 µM]
O=C1CO[C@H]2CN(Cc3ncc[nH]3)C[C@H]2N1Cc1ccncc1,active: 35.5 µM,
COCCNC(=O)[C@H]1CN2CCC1C[C@@H]2Cn1cc(-c2cccc(N)c2)nn1 (stereo not given in full),"inconclusive: 28.2 µM [inhibitor, single point]",
COc1ccc(S(=O)(=O)N2C[C@@H]3C[C@H](C2)c2ccc(-c4ccccc4C)c(=O)n2C3)cc1,"inconclusive: 22.4 µM [inhibitor, single point]",
COc1cc2c(cc1OCC1CCCC1)N([S+](=O)([O-])c1cccc(C(F)(F)F)c1)CC21CCN(CC(=O)O)CC1,,inactive: 11.9%
CCn1cc(CN2CCN(C(=O)COc3ccccc3)CC2)ccc1=O,"inconclusive: 8.91 µM [inhibitor, partial curve]",
Cn1cc(-c2cnc3[nH]cc(CC(=O)N4CCN(Cc5ccccc5)CC4)c3c2)cn1,active: 28.2 µM,
Cc1cnc(CCN)n1C1CC1,"inconclusive: 6.31 µM [inhibitor, partial curve]",
